According to PubChem BioAssay AID894 (National Center for Advancing Translational Sciences (NCATS), 2007):
Hit rate of the full screen: of about 150,000 compounds, about 6,500 (4.3%) were called active. The shares of active, inactive and inconclusive entries below differ from those in the screen. Calls come from the whole dose curve; as a rule, active = well fitted inhibition curve with a large enough effect (not every such curve was filed as active); inconclusive = small, poorly fitted or top-dose-only effect, or another doubt; inactive = no such curve, though single readings can be large or run the other way. No potency is given beside an inconclusive call; the fits are too rough.

The compounds below were run against 15-hydroxyprostaglandin dehydrogenase [NAD(+)] (Homo sapiens) (UniProt P15428) (assay: qHTS Assay for Inhibitors of HPGD (15-Hydroxyprostaglandin Dehydrogenase)). Conditions: purified HPGD, NADH fluorescence kinetic, PGE2 substrate; activity change, negative = inhibition: hits give low values.
In short: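 NADH formation kinetics: reaction with 30 uM PGE2 and 1 mM NAD+ (final), 20 nM enzyme, Tris-HCl pH 8 with Tween 20, after 15 min compound preincubation at room temperature. Fluorescence change, last versus first of five reads.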
% is set by controls: 0 for no effect and ±100 for the full control effect; potency is the fitted concentration of half-maximal effect; tags give direction and shape of the fitted curve.

UniProt P15428, sequence (P15428 whole entry, looked up): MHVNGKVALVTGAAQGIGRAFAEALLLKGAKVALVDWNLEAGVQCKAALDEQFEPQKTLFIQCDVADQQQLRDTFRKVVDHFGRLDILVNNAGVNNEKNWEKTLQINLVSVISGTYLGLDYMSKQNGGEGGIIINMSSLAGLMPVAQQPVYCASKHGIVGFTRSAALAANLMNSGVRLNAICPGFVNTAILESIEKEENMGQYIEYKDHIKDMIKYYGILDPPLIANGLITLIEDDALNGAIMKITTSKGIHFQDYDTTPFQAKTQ

SMILES | Potency | activity change, negative = inhibition
Cc1ccc(S(=O)(=O)CCSc2cccc(C(=O)Nc3ccccc3C(=O)O)c2)cc1 | active: 15.8 µM | 
c1ccc(C2Oc3ccccc3C3CC(c4cccs4)=NN32)cc1 (stereo unspecified) | inconclusive [inhibitor, partial curve] | 
O=C(CSc1nc2ccccc2s1)Nc1ncccn1 | inconclusive [inhibitor, partial curve] | 
COc1cc(/C=N/n2c(C)n[nH]c2=S)ccc1OCc1ccc(F)cc1 | active: 2.82 µM | 
O=C(CCc1ccccc1)NNC(=S)NC(=O)c1ccc(Cl)cc1 |  | inactive: -27%
COC(=O)c1cc2c(ccn2-c2ccc(F)cc2)n1CC(=O)N1CCN(C(=O)c2ccco2)CC1 | inconclusive [inhibitor, partial curve] | 
Cc1cc(C)cc(N2CCCn3c2nc2c3c(=O)n(CC(=O)OCc3ccccc3)c(=O)n2C)c1 | inconclusive [inhibitor, single point] | 
O=C(O)C1C2C=CC(CC2)C1C(=O)O (stereo unspecified) |  | inactive: -3.38%
Cc1nn(C(=O)c2ccco2)c(C)c1Br |  | inactive: -6.04%
Cn1cccc1CC(=O)NNC(=S)Nc1ccc(Cl)cc1Cl | active: 11.2 µM | 
CC(C)Cn1c(N)c(C(=O)COC(=O)c2cc(C3CC3)nc3ccccc23)c(=O)n(C)c1=O | inconclusive [inhibitor, single point] | 
CCOC(=O)NC(=O)/C(C#N)=N\Nc1ccc(Cl)cc1 |  | inactive: -25.1%
O=C(c1cc(F)c(F)cc1Cl)N1CCCCC1 | active: 5.62 µM | 
COC(=O)C1CCN(c2cc(=O)n(-c3ccccc3Cl)c(=O)[nH]2)CC1 |  | inactive: -8%
COc1ccc(C(=O)NNC(=O)CSc2nnc(COc3ccccc3OC)n2C)cc1 |  | inactive: -17.3%
Cc1ccc(C(=O)Oc2ccc(-c3nccc(-c4ccccn4)n3)cc2)cc1 |  | inactive: -16.7%
Cc1ccccc1N1C(=O)c2sc3nc4c(c(=O)n3c2C1=O)CCC4 | active: 31.6 µM | 
C[C@@]12C=CC(=O)C=C1CC[C@H]1[C@H]3CC[C@](O)(C(=O)CO)[C@]3(C)CC(=O)[C@@H]12 |  | inactive: -2.41%
Cc1ccc(N(C)S(=O)(=O)c2cccc(C(=O)Oc3ccc4c(C)cc(=O)oc4c3)c2)cc1 | inconclusive [inhibitor, partial curve] | 
O=C(c1cccs1)N(Cc1nc2sc3c(c2c(=O)[nH]1)CCCC3)C1CCCC1 | inconclusive [inhibitor, partial curve] | 
O=C(c1ccccc1)c1cc(F)c(N2CCOCC2)cc1Cl | active: 20 µM | 
COc1ccc(CCNc2c(N)n(Cc3ccccc3)c(=O)[nH]c2=O)cc1OC | inconclusive [inhibitor, single point] | 
COC1CC(O[C@H]2/C(C)=C/CC3CC(C[C@]4(CCC(C)C(C5CCCCC5)O4)O3)OC(=O)[C@H]3C=C(C)/C(=N/O)C4OC/C(=C\C=C\[C@@H]2C)[C@@]43O)OC(C)C1O (stereo partly specified) |  | inactive: -2.79%

SMILES | Potency | activity change, negative = inhibition
CN(C)CCNC(=O)c1ccc(-c2nn(C)c(=O)c3ccccc23)cc1 | active: 20 µM | 
O=C(Nc1nnc(-c2ccco2)s1)C1CCN(S(=O)(=O)c2ccc(Cl)cc2)CC1 | inconclusive [inhibitor, single point] | 
COc1cc(O)c(C(=O)c2ccccc2)cc1S(=O)(=O)O |  | inactive: -1.28%
O=C(CCCn1c(=O)c2sccc2n(Cc2cc(=O)n3ccccc3n2)c1=O)NCc1ccco1 | inconclusive [inhibitor, partial curve, poor fit] | 
CCOC(=O)NN1C(=O)c2ccccc2NC1c1ccc(OC)cc1 (stereo unspecified) | inconclusive [inhibitor, partial curve] | 
CCOc1ccc(Nc2nc(NCCN3CCOCC3)nc(OC)n2)cc1 | inconclusive [inhibitor, single point] | 
O=[N+]([O-])c1ccccc1-c1cc(-c2ccccc2O)n[nH]1 | active: 12.6 µM | 
Cc1[nH]c2ccccc2c1C1=NNC(=Nc2ccc(F)cc2)SC1 |  | inactive: -4.4%
COc1ccc2oc(-c3cccc(NC(=O)CSc4ccc(Cl)cc4)c3)nc2c1 | inconclusive [inhibitor, single point] | 
O=C1N2CCSC2=NC1(Nc1ccccn1)C(F)(F)F (stereo unspecified) |  | inactive: -6.28%
S=C(c1cn(CCOc2ccccc2)c2ccccc12)N1CCCC1 |  | inactive: -22.7%
Cc1cc(OCCSc2nnc(-c3cccs3)n2C)ccc1Cl | inconclusive [inhibitor, partial curve] | 
CC(C)Oc1ccc2c3c(c(=O)oc2c1)CCC3 | inconclusive [inhibitor, partial curve] | 
O=C(COc1ccccc1O)N1CCN(C(=O)c2ccco2)CC1 |  | inactive: -2.96%
COc1ccc(NC(=O)N2CCC3(CC2)CCN(C(=O)c2cccc(F)c2)CC3)cc1 |  | inactive: -0.0961%
CC1(C)Cc2c(C#N)c(OCC(=O)c3ccc(Cl)cc3)nc(-c3ccco3)c2CO1 | inconclusive [inhibitor, partial curve] | 
O=C(CC1(O)C(=O)N(Cc2ccccc2Cl)c2ccccc21)c1ccco1 (stereo unspecified) |  | inactive: -1.27%
COc1ccc(C(=O)Cc2ccc3c(c2)OCO3)c(O)c1 | inconclusive [inhibitor, partial curve] | 
O=C(C[n+]1ccc(-c2nnc3n2CCC3)cc1)c1ccc(Cl)c(Cl)c1 | inconclusive [inhibitor, partial curve] | 
COc1cc(NS(=O)(=O)c2ccc(N/C=C\C(=O)c3ccc(F)cc3)cc2)nc(OC)n1 | inconclusive [inhibitor, partial curve] | 
C#CCn1c(S(=O)(=O)Cc2ccc(OC)cc2)nc(-c2ccccc2)c1-c1ccccc1 |  | inactive: -7.65%
COc1cc(/C=N\NC(=O)c2nonc2N)c(OC)cc1Br | inconclusive [inhibitor, partial curve, poor fit] | 
COc1cccc(OC)c1OCCCOc1ccc([N+](=O)[O-])cc1Cl | active: 15.8 µM | 
